{
  "source": "paper PMC12136788",
  "binders": {"B1": {"name": "chr13:108229279:108229380:+|CDS|ENSG00000139826|unk|FALSE|unique (ssRNA)", "RNA": "GGGAGUUCUACAGUCCGACGAUCGCUAAUAGCCUUGGCUUCAUGGUCUUGGGCUCUCUGCCGUAUUUCUCUUUUACCUUUAAUAGUGACUUUUCAUCUGUAUGGAGGCAUUAUCUUACUUUUGUUAAUAUUCAUAUCAAUAGCCAACAGAGGAUUGAGCAUCA"}, "B2": {"name": "chr12:120764159:120764260:-|3pUTR|ENSG00000157837|msi1|total|mutant (ssRNA)", "RNA": "GGGAGUUCUACAGUCCGACGAUCACACACACACCGAUAUAUAUGAAUAAACAAAAAUGAAAUCCUGCUAAGAUCACGCUGUGCCGCUGACAGGGGCUUGCUGUCGUUUUGAGCAUGUCGAGCAGUUUACUGUGGCUUCCUUGUCAACAGAGGAUUGAGCAUCA"}, "B3": {"name": "chr1:965281:965395:+|3pUTR|ENSG00000187961|unk|total|mutant (ssRNA)", "RNA": "GGGAGUUCUACAGUCCGACGAUCCCAUCCGUUCACGUCUCUGCAUCCAUUCCUUCAUGUCUUUAUUCCGUUGUUUAUUUAUUCCGUUAUUUAUCUUAUUUAUUGAGGGGUGAGGAGUGCCACGGCUGCCCGUUUACACCUUUACAACAGAGGAUUGAGCAUCA"}, "B4": {"name": "chr15:90882754:90882855:+|3pUTR|ENSG00000140564|msi1_unk|FALSE|overlapping (ssRNA)", "RNA": "GGGAGUUCUACAGUCCGACGAUCCACUUUGUGAUUAUUUCACUUUAGAUGCUGAUGAUUUGUUUUUGUAUUUUUAAUGGGGGUAGCAGCUGGACUACCCACGUUCUCACACCCACCGUCCGCCCUGCUCCUCCCUGGCUGCCCCAACAGAGGAUUGAGCAUCA"}, "B5": {"name": "chr12:48342538:48342639:-|3pUTR|ENSG00000167528|unk|FALSE|unique (ssRNA)", "RNA": "GGGAGUUCUACAGUCCGACGAUCUUGUUAAACAUUUUGAGUAUCACUCUUGCAUACUGUUACUAUUAUAUUUUCUCUAUAUAUAGACAGAAAGGCCAUUUUAGAAUAUUAAAGGCUCUGAAAAUUUCUGCAGUAGACCCAACUCAACAGAGGAUUGAGCAUCA"}, "B6": {"name": "chr9:15468732:15468834:-|CDS|ENSG00000164985|unk|total|mutant (ssRNA)", "RNA": "GGGAGUUCUACAGUCCGACGAUCAAUCCGGAAAACAAUUAUGAUGAAUGUAUAUUGUUUUCUCAGAUACGGCGAUUCAAAGUCCGUCAGGUAAUCAUGGAAAAGUCUACAAUGUUGUAUAACAAGUUUAAGAACAUGUUCUUGCAACAGAGGAUUGAGCAUCA"}, "B7": {"name": "chr10:73423578:73424772:-|three_prime_utr|ENSG00000166343|control|control|control (ssRNA)", "RNA": "GGGAGUUCUACAGUCCGACGAUCCCAGUAUACUGCAGUGCAUACUAUAUCAUGUUUCUUGGAAGCUCCUGUCAGCUGGAUAAUAGGCAAUUAGAAGAGAAAGUGGACGGCGGGAUUUAAAUAGAUCAUAACUGGACAUCUGGACAACAGAGGAUUGAGCAUCA"}, "B8": {"name": "chr15:43456694:43456846:-|CDS|ENSG00000067369|unk|FALSE|unique (ssRNA)", "RNA": "GGGAGUUCUACAGUCCGACGAUCAGACACCAGGGAUGACAUUAGUAUUUUAGCCACUGGUUGCAAGGGCAGAGAAGAAACGGUAGCAGAAGAUGUUUGUAUUGAUCUCACUUGUGAUUCGGGGAGUCAGGCAGUUCCGUCACCCAACAGAGGAUUGAGCAUCA"}, "B9": {"name": "chr17:41822664:41822765:+|3pUTR|ENSG00000141756|msi1|total|mutant (ssRNA)", "RNA": "GGGAGUUCUACAGUCCGACGAUCUUCCUUAAAAUGUUUGGAUUUGCAAAGCCAAUUUGGGGCCUGUGGAGCCUGGGGUUGGACCGGGCCAUGGCUGGUCCCCCACCAUACCUCCCCUCCACAUCACUGACACAGCUGAGCUUGCAACAGAGGAUUGAGCAUCA"}, "B10": {"name": "chr5:72209348:72209524:+|3pUTR|ENSG00000131711|msi1_unk|FALSE|overlapping (ssRNA)", "RNA": "GGGAGUUCUACAGUCCGACGAUCUUAUGUCUUAUAAUCCUGCAUCACUUCUAUCCUAUCCAGUCAUAUCUAAUGUAGAAAAUUAGUUUCCAGUGAAAGUAAUAUGUAGUGCUUUUAUGAUAUUUGUGUGCAAUAUCCCCUCUUCAACAGAGGAUUGAGCAUCA"}, "B11": {"name": "chr11:20048915:20049016:+|CDS|ENSG00000166833|unk|total|mutant (ssRNA)", "RNA": "GGGAGUUCUACAGUCCGACGAUCGAGCAGUGGGAGCAGCAGUCCUCUCUACAGCAAGAAUGUGGACCUCAACCAGUCUCCGCCCGCCUCCAGCCCCAGCUCAGCCCACUCGGCCCCUUCCAACAGCCUCACCUGGGGCACCAACAACAGAGGAUUGAGCAUCA"}, "B12": {"name": "chr6:149410404:149410522:+|3pUTR|ENSG00000055208|unk|FALSE|bound_elsewhere (ssRNA)", "RNA": "GGGAGUUCUACAGUCCGACGAUCUUAUAUUUCUAUAUGUAUAGUGUAAUAGCCUUUUGUUAACUAAUUUUCUUUUUUCCUUUUAGUAAUUAAGCACGAUCAUGUCCCUUUUUAAGCCUUACCUGAGAGGAACAAUGCCUUAAACAACAGAGGAUUGAGCAUCA"}, "B13": {"name": "chr10:30336814:30336915:-|CDS|ENSG00000107951|unk|total|mutant (ssRNA)", "RNA": "GGGAGUUCUACAGUCCGACGAUCGUAUUUUCCAGACUGCACCGUCAGACCCUUUGGCUCCUCAGUCAACACUUUUGGGAAGUCCGGAUGUGAUUUGGACAUGUUUUUGGAUCCCGAUGAAACCAGAAACCUCAGCGCUCACAACAACAGAGGAUUGAGCAUCA"}, "B14": {"name": "chr12:66123492:66123593:-|3pUTR|ENSG00000139233|msi1|total|mutant (ssRNA)", "RNA": "GGGAGUUCUACAGUCCGACGAUCAUGCUACCCAAUAUCCAGUUAUAAUCAGGCCUCAACGUUCUGUCAGGUAUUAAUAUGGUCCGAAUUGUUCUUACAACUGGUAAUUACCGUCAACCGAGAUAAAACAGAUGAUGUACUGACCAACAGAGGAUUGAGCAUCA"}, "B15": {"name": "chr15:90501451:90501552:+|3pUTR|ENSG00000140575|msi1_unk|total|mutant (ssRNA)", "RNA": "GGGAGUUCUACAGUCCGACGAUCCUGAGCCUCUAUUUUCUUUCUUUGAUGUUUUGAUUCAGUAUUCUUUUAUCAUAAAUUUUCCGCAUUUAAAAAUUCACUGAUGUACAUUAAGCCAAUAAACUGCUUUAAUGAAUAACAAACCAACAGAGGAUUGAGCAUCA"}, "B16": {"name": "chr1:203741760:203741861:+|3pUTR|ENSG00000058668|msi1|FALSE|unique (ssRNA)", "RNA": "GGGAGUUCUACAGUCCGACGAUCAUUUUGGUUUUGUAAAACGUACAUGCUUCAAUAAUUCUUUUUUGUGUCUUAAAUACUCAUAGGGGAAAAAAACAGCUCACCCAAGGUGUUAGGUUUCACAUAUAUAUUCAUCAACUAUUUCAACAGAGGAUUGAGCAUCA"}, "B17": {"name": "chr19:34469546:34469571:+|3pUTR|ENSG00000126261|msi1_unk|FALSE|overlapping (ssRNA)", "RNA": "GGGAGUUCUACAGUCCGACGAUCGUUGCCUUUUUAAUGUAAAUACCCGUAGGUAUCAUUAAUAGUUUCAAAAUAUUGUGGUUUAGUAAAGUUGAUACCUGGUUAUAAAUAUUAUGCCUUUAUUUUUGGCUAGAAGAAGAAUUACAACAGAGGAUUGAGCAUCA"}, "B18": {"name": "chr9:37357341:37357442:+|3pUTR|ENSG00000147905|unk|total|mutant (ssRNA)", "RNA": "GGGAGUUCUACAGUCCGACGAUCAUUAUCUAUGAUUAAAUAAAGUGAGUUUUUGGUUUUGUUUUUUUAAUUUCAGCCAUUCCCCGAGUUACUGAAUAUCCAUGGAGAUCUCAAUUCUCUGUGUCCAACAGGAUAUCCGGUAAGCAACAGAGGAUUGAGCAUCA"}, "B19": {"name": "chr7:93208579:93208876:-|CDS|ENSG00000188175|control|control|control (ssRNA)", "RNA": "GGGAGUUCUACAGUCCGACGAUCUGACAAUACUACAUAUAUCAUUAAGCAUGGGCCUCGCUUAGAAGUUGCAUCUGAGAAAGUAGCCCAGAAGACAAUGGACUAUGUGUGCUGUGCUUACAACAACAUAACCGGCAGGCAAGACAACAGAGGAUUGAGCAUCA"}, "B20": {"name": "chr18:47840682:47840783:-|3pUTR|ENSG00000175387|unk|FALSE|unique (ssRNA)", "RNA": "GGGAGUUCUACAGUCCGACGAUCAUACCGUUUUUCCAAAGGUAUUUUACAAUAUUUCAACAGCAGACCUUCUGCUCUUCGAGUAGUUUGAUUUGGUUUAGUAACCAGAUUGCAUUAUGAAAUGGGCCUUUUGUAAAUGUAAUUCAACAGAGGAUUGAGCAUCA"}, "B21": {"name": "chr7:138594284:138594621:-|three_prime_utr|ENSG00000157703|control|control|control (ssRNA)", "RNA": "GGGAGUUCUACAGUCCGACGAUCUCAGAACUGCGGUGCAUUUUUUUAAAACUUGGUUUUACUUCUGUAUGCUACUCGGUAAUUAGUAAAGUGAUUUUUUUUUUAAAGGCAUAUAUGGGAAUGGGGUAGGUAACUGUAUAUUGACAACAGAGGAUUGAGCAUCA"}, "B22": {"name": "chr10:106575406:106575507:-|3pUTR|ENSG00000108018|unk|total|mutant (ssRNA)", "RNA": "GGGAGUUCUACAGUCCGACGAUCUUAUGGACUGGGCAAAGCCCACUAUAAACUACCGGAGAAAGAAGUUCUGAUAAACCUCUCCGUAUGCUCAGCCUCCUUCUUUGCUAUGUCCCUAAGCCAACAGGGUAUAACACAGGCCCUCAACAGAGGAUUGAGCAUCA"}},
  "note": "The other results are listed elsewhere or left out.",
  "data": [
    {"target": "T1, UNK ZnF1-6 (called full-length) (human, UniProt Q9C0B0 30-357)", "T1 sequence": "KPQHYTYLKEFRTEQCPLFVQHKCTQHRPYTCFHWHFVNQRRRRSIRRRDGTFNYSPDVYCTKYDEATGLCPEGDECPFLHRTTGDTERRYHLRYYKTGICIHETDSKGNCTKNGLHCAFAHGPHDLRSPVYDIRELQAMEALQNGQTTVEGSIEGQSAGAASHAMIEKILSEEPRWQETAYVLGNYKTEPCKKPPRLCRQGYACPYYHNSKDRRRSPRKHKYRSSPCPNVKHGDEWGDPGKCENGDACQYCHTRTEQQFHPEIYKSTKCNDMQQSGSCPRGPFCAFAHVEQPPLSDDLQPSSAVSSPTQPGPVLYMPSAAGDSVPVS", "test": "nsRBNS (natural sequence RNA bind-n-seq); RBNS binding buffer (assumed for nsRBNS): 25 mM Tris pH 7.5, 150 mM KCl, 3 mM MgCl2, 0.01% Triton X-100, 500 ug/ml BSA, 20 U/ml SUPERase-In, 4 C; UNK is unkempt and MSI1 is Musashi-1; names of the RNAs are library labels; protein concentration not given here; high values mean tight binding", "units": {"binding signal": "enrichment R"}, "values": [
      {"binder": "B1", "binding signal": 2.35},
      {"binder": "B2", "binding signal": 0.805},
      {"binder": "B3", "binding signal": 5.63},
      {"binder": "B4", "binding signal": 1.87},
      {"binder": "B5", "binding signal": 3.54},
      {"binder": "B6", "binding signal": 0.223},
      {"binder": "B7", "binding signal": 1.23},
      {"binder": "B8", "binding signal": 2.14},
      {"binder": "B9", "binding signal": 0.628},
      {"binder": "B10", "binding signal": 1.93},
      {"binder": "B11", "binding signal": 0.913},
      {"binder": "B12", "binding signal": 66},
      {"binder": "B13", "binding signal": 0.61},
      {"binder": "B14", "binding signal": 0.232},
      {"binder": "B15", "binding signal": 0.789},
      {"binder": "B16", "binding signal": 1.41},
      {"binder": "B17", "binding signal": 9.94},
      {"binder": "B18", "binding signal": 0.382},
      {"binder": "B19", "binding signal": 0.768},
      {"binder": "B20", "binding signal": 0.534},
      {"binder": "B21", "binding signal": 3.04},
      {"binder": "B22", "binding signal": 0.578}
    ]}
  ]
}
